Here are results for 29 molecules from the supplement of paper PMC12632987.

The chains are these.
B1: LC3A_3_1658 (protein)
chain: AEELVKETLEYLKKQGKSEEVLEAVKKALTALIEKGYLETAKTFAELLKELADLSDETLLDLANEVLELVETENISEEEMKKRVKELARVARLEEEIEEL
B2: LC3A_28_1147 (protein)
chain: SAEVEAAKKQIDEDAEKDKNEEEVYLNVTITSSMTKEEVEEIMDHVEEVVEKLKDKKKIYVVVTFTEPVSQEVLDTALEKGDEIEKKFPKVDVIVALPEY
B3: LC3A_free_26_2131 (protein)
chain: EEFIDIVALDEAIRLLEEVLKLLEANPNASEEQKELAKKAIEEAKKETLESLEKALKLIKELKKLVEKNKSLPEEVKKKLLELLEEAEKKLEEVIKIMKE
B4: LC3A_3_1483 (protein)
chain: MAAARAALLAALRAAGASDETLAAVAAALDALEAKGYTAAAATFIAVMRANLGLPDEDLLAIAELALELVQTSSLSEAELAARITQIAEDVAGIEELDEE
B5: LC3A_28_1170 (protein)
chain: SETEENAKKALEEAKKAAEAGEPALIELSLPSGATQEEVDKVIKTMEEIAELLKDIPGSAILVDIDSGVKQEHIDKLMDKGDEIEKKYPNVSVIFALDED
B6: LC3A_free_39_2226 (protein)
chain: SQEELDELIKELAKEAGLPYEEVKKKIEEIQKIGGLSTEQMIEIVKALLEAVKAGADAEEILKEAVELAKELKAQGKSPEEIAEAILQLIEDYRNLVPLD
B7: LC3A_28_675 (protein)
chain: MELRENLEKALKEAKEAAAKGEPTVIVIKIPGDATEEEIEELIEKLEEIAEILKDVKGSAIIIDLSKKLKQEHRDKIIDKAEEINEKYPNVTVIIALEEE
B8: LC3A_3_1691 (protein)
chain: MEEKVQEVLELLKEIGADEETLKAAKELLEELTKRGYLEAIKTLLEELKKLKNLPSEILKAMFEDLLHKVRTENLSEEEVVELIKEEAEVAKNEAEIEEL
B9: LC3A_3_1745 (protein)
chain: MEEKLEEIRKELEELGFSEEVIEAALEVAKALLERGFEEAVKVLLEELKKLKDVPDEILLAMLEDIKRYIEENDINEEEAIEKIKEEARIARNEAEIEEL
B10: LC3A_free_46_2393 (protein)
chain: IKGYIDLLLKGATEEQAKEIAEAAVEKIKEEAAKKGINVKIEVTITKDEDGDYFIDIEVEMDTDDENEALDILDEVEDYALEKAKELGIEASSIISVEKD
B11: LC3A_free_39_2177 (protein)
chain: SEEELKKAKEELLKLAKEEGEEALKIAKEILELINGNLELVKLLVEGLKKIKEEGGDVLATLKRILEEIKRLKEEGKSMEEILEEVKEIIEDDLNLIPLD
B12: LC3A_3_1470 (protein)
chain: MDPLIKELRERLKAAGVPEEAIERIVENMEKILKHGVLEEAVEEIKKALESPNATPEKLVELSEELAKRVEEEKLTPEEAREEARVLRLEYIEIEEIDEE
B13: LC3A_free_8_2503 (protein)
chain: SRQEVVDAALDGLDELEKELVEKAKELGLSELDILELELEIGSVIAEVISNADASPEEILKATREGLERIIKLAKELSEELAKLAEEKSKEILEELEKLL
B14: LC3A_3_1488 (protein)
chain: MEELLEEARRVLRERGASEEQIEAVLADLERVLELGYEETVREFIRLLRERPDLSPEQIVAAAGTILDRVEEEDLTEEEAVEYARRVMEDVAEIEELEEE
B15: LC3A_37_1343 (protein)
chain: EEKWVIVVVANSEEAYEKAKKEAEKEAKAIGAELRTKLLPETATEQELIDAAEELAKEVAEEIAKKTGKEVESSSIIEVDRDEETGEIVVTKYVLLTIKP
B16: LC3A_147_450 (protein)
chain: VLYEITVDILFKNDPELAEEVEEEIKEIAEKYGGEVEVEREVEQETPTTTLYFVRVTIKFEDEEKALEAEQEISELLDETAKKHPEKFVGAMISIEKIEE
B17: LC3A_147_470 (protein)
chain: YKTEVDIDILTKDAEEEVIKALKEIAEELKKEGYKVELKIETEKLPDGTTYIEATITIEAETLEEAEKAANKVISLIDEMEEKLKDKILGSLISVSIEKK
B18: LC3A_free_8_2536 (protein)
chain: KREEILRKISEILDRTEKEVEEAGKKLGVDRIDILELQLLIGEAIIAAHEAPFRSLEETREEILEALKEAEEEAKKLSPEIAKIVREAREEVEALLEEAL
B19: LC3A_free_8_2545 (protein)
chain: KTEEFLAKVSKLLDELEEEIEEKAKELGLSELDILDLSLLVGETLAEMLDASEEGPEKALEAVKEGLKEVIEEAKELSEELAKFVKEKAEKLLKEAEKLL
B20: LC3A_3_1545 (protein)
chain: MDALRAATLAALRAAGASDAVLAAAAAAFDALAARGYDEAAAVLAAEARALADLPDDILLWFFEDVLAYVETEDADEEEVIAKIRELAATARAEGEIEEL
B21: LC3A_3_1701 (protein)
chain: MEELLEEARKILTEQGRSEETIEAALAALKALLDRGYEEAAKTLLELLKESGDLSDETLLAFFEDVLAYVETEDASEEEVIAFIKHEYKVAKNDQEIEEL
B22: LC3A_free_12_2128 (protein)
chain: SHEEMLEGFTDLAIAAAEVNVELAKEMLKELIDMGEAEGAVKVIIALAKSGKVSEEELIELIKELVDKAKPSKEQLKKLKEALKKLGKEEAAAYVEELLK
B23: LC3A_28_930 (protein)
chain: MTVEEIKAHIREVADEAIAKGEDAYIEIEIGSDTTVEEAEEIMDELEREAARLAAAGLKVNVVIDLDNVSQEVLDTVLSKADEINEKYPRVNVYIALDEE
B24: LC3A_28_928 (protein)
chain: MTVEEIKEKIKKEADEAIKKGEDAYIEIEIGSSYTKEEAEEIMETLREEAKKLAEAGLKVSVVIDLDNVSQEVLDTVLDKADEINEEYPLVNVIIALDEE
B25: LC3A_28_823 (protein)
chain: SAVDERNAKVLAEAKALAAAGEERTITVTVESSDTLEDIEKTAETIKEIAEILKPLDSVTILIDLTEPISPESLKKLADTGDEVEKKYPNVTVIIALPEE
B26: LC3A_132_305 (protein)
chain: GEKLAEELIKKAKEALELAKTDPEKKEEILKLLEEIRKLMEELKKKASPELAAKAFEEVMEIMLELSRVASKQGWDEVADEAFALAAEAAQLAAEAKAKL
B27: LC3A_3_1476 (protein)
chain: MEERVEEVLKELREAGWSEEALEKVREAAEKLKELGHEKALETFLEEMRELKDLPSELVLEAAEEVLEAIEKYKDDEEKLIEEIKSIAAATKAEGEIIEL
B28: LC3A_17_583 (protein)
chain: SEEIKKKIEELLKELEKLIKKAKELGIPKAKEIEKLLEKAKKELKEGKLKEAAELLEEAARLLADAFDEIEEEKGDEASLLSMEAEGLELEAIGLLLKLE
B29: LC3A_37_1345 (protein)
chain: EEIDVIIVVANDEETFEKYKKEAEEEAEKLNAELIAELLPESATVQELVDKAEELAEEKVKEIEEKSGKEVESSSIIEIEKDEETGKYAVILYVLITLKE

In all, about 2,300 sequences were measured (“median log2 fold change of GCK-ALFA target abundance (FLAG IP / Myc IP barcode read proportion)”: median about 0.095, lowest 2% from about -0.47 on). This is one part of the list.

The target of this assay is MAP1LC3A, Q9H492. Kind of assay: median log2 fold change of GCK-ALFA target abundance (FLAG IP / Myc IP barcode read proportion) (log2 ratio); each designed protein is fused to an ALFA-tag nanobody in HEK293 cells to bring the named protein to FLAG-tagged glucokinase (GCK); Myc marks an untargeted standard; higher = target protein stabilised (more abundant). The note with it: target protein: 3xFLAG-MCP-GCK-ALFA reporter; HEK293 landing pad (RPLP). A digest of the protocol: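 Sequencing of reverse-transcribed, amplified circular RNA barcodes from anti-FLAG and anti-Myc immunoprecipitates provided the readout for an ALFA-nanobody-fused binder library recombined into HEK293 landing-pad cells. Those cells were induced with 2 μg mL^−1 doxycycline, transfected with a plasmid expressing a FLAG-tagged target and a Myc-tagged standard, and lysed after 48 h. Target abundance is the per-binder median log2 ratio of FLAG to Myc barcode read proportions. Only barcodes at a proportion of ≥10^−7 in both replicates and binders with ≥3 barcodes per replicate were kept, with a 10^−6 pseudocount added before the two replicates were pooled.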
For B1, the “median log2 fold change” value was found to be 0.194.
Regarding B2, the “median log2 fold change” value was -0.475.
To B3 belongs -0.219; to B4, -0.0039.
To B5 belongs -0.424.
To B6 belongs 0.267.
Take B7: the “median log2 fold change” value was 0.0592.
To B8 belongs 0.187.
Regarding B9, the “median log2 fold change” value was 0.167.
The result for B10 reads -0.0869.
The result for B11 reads 0.0742; that for B12, 0.314; that for B13, -0.132.
Regarding B14, the “median log2 fold change” value was 0.113.
As for B15, the “median log2 fold change” value was 0.102.
The result for B16 reads -0.716.
To B17 belongs -0.397.
To B18 belongs -0.187; to B19, -0.129.
For the molecule B20, the “median log2 fold change” value came to 0.253.
The result for B21 reads 0.215; that for B22, 0.127; that for B23, -0.0657.
To B24 belongs -0.367; to B25, 0.266; to B26, 0.108.
On to B27, for which the “median log2 fold change” value is 0.254.
To B28 belongs -0.14.
As to B29, the “median log2 fold change” value was -0.237.
